Values joined by “and” are separate entries in the source; they are usually repeats but may differ in a detail not shown here. Identical values can stand only once. The campaign covered roughly 360,000 compounds. About 16,000 (4.4%) were called active. The shares of active, inactive and inconclusive entries below differ from those in the screen. The call rests on the fitted dose curve; in most records, active means well fitted inhibition curve with a large enough effect; inconclusive means small, poorly fitted or top-dose-only effect; inactive means no such curve, though single readings can be large or run the other way. Potencies beside an inconclusive call are fits to weak or partial responses and may not hold up.
These compounds were tested against Bromodomain adjacent to zinc finger domain protein 2B (Homo sapiens) (UniProt Q9UIF8) (assay: qHTS Assay for Inhibitors of BAZ2B). Conditions: AlphaScreen BAZ2B-H3K14Ac peptide displacement; series mostly up to 114 µM.
UniProt Q9UIF8, sequence (Q9UIF8 whole entry, looked up, the tested form may be a part): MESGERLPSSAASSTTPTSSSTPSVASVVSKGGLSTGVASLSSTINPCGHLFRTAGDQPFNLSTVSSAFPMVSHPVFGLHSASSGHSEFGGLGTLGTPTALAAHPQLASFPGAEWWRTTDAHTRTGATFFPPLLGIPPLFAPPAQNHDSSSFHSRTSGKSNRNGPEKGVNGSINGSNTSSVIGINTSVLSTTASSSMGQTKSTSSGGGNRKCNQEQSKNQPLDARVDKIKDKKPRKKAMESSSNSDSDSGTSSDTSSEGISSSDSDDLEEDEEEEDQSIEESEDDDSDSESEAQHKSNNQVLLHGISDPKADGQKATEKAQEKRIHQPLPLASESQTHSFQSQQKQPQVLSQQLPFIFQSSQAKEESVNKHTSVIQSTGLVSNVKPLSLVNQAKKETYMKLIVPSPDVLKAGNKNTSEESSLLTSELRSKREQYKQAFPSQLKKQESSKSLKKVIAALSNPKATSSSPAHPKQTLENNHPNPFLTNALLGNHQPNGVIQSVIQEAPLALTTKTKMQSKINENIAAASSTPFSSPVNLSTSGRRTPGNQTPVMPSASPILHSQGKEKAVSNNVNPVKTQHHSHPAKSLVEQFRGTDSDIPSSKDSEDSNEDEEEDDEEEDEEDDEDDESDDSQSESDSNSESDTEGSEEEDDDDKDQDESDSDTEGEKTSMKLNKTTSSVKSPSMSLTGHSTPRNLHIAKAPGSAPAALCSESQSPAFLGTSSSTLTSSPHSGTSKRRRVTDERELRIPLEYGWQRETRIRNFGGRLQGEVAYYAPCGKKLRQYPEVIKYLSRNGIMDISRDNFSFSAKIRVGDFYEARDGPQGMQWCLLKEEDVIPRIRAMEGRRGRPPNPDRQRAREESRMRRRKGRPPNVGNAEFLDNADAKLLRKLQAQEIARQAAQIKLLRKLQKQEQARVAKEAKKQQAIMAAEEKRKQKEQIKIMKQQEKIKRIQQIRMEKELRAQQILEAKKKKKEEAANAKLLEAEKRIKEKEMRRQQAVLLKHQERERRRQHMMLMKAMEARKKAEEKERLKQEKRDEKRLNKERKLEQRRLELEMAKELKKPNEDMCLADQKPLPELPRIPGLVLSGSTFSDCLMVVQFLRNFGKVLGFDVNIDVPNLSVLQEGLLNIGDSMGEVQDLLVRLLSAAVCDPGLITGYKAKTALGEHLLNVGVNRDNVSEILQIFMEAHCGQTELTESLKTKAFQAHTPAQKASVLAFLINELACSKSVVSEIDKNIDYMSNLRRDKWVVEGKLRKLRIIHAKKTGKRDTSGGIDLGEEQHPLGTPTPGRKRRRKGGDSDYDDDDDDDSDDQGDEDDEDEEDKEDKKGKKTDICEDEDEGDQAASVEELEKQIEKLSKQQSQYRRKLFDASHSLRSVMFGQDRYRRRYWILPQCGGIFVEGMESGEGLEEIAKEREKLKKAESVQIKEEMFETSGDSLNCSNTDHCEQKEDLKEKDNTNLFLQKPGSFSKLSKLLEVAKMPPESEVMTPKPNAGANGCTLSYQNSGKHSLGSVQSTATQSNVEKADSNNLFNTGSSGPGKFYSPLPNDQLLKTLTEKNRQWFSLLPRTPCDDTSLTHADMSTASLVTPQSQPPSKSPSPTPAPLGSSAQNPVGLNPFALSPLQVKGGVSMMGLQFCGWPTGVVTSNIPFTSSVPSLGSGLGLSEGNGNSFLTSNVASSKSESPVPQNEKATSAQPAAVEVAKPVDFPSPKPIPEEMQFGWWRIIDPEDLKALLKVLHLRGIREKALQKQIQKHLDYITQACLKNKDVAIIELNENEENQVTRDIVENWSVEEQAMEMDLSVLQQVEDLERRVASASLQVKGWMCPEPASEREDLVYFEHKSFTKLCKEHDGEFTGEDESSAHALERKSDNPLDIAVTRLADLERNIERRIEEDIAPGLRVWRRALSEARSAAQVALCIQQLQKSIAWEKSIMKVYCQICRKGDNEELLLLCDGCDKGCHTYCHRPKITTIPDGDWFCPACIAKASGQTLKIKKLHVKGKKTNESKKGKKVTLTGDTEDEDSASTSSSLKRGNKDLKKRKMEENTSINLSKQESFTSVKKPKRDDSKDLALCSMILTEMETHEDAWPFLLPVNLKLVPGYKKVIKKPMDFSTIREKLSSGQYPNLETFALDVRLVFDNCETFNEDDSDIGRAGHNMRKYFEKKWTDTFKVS
Outline: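 In this displacement format the biotinylated H3(5-23) peptide acetylated at Lys14 serves as ligand at 50 nM, with BAZ2B at 50 nM in PBS pH 7.4 containing 0.01% Tween-20. Donor and acceptor beads are 10 ug/mL final.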
With `NC(=O)c1ccc[n+](CC(=O)c2ccc(Br)cc2)c1` the Potency was “inactive”. In the case of `N#CC1=C(N)C(C#N)(C#N)C(c2cccnc2)C2COCC=C12` (stereo unspecified), the Potency is reported as “inactive”. `Cc1ccc(S(=O)(=O)NC(C)(C)CSc2nnc(Nc3ccccc3)s2)cc1` was tested, and the Potency was inconclusive: 12.6 µM [inhibitor, full curve]. With `O=C(CN1CCN(c2ccccc2)CC1)Nc1ccccc1Cl` the Potency was inconclusive: 79.4 µM [inhibitor, single point]. `CCOC(=O)c1c(NS(C)(=O)=O)sc2c1CCC(C)C2` (stereo unspecified) was tested, and the Potency was inconclusive: 79.4 µM [inhibitor, single point]. For `CCc1ccc(NC(=O)c2nnn(Cc3cccc(C(F)(F)F)c3)c2N)cc1`, the Potency was “inactive”. In the case of `COC(=O)c1cccc(NC(=O)CSc2nc(=O)cc(N)n2-c2ccccc2)c1`, the Potency is reported as active: 56.2 µM. For `Cc1nc2c(C(=O)NCc3ccc4c(c3)OCO4)cnn2c(C)c1Cc1ccc(F)cc1Cl`, the Potency was inconclusive: 89.1 µM [inhibitor, single point]. In the case of `COc1cc(C(=O)OCc2cc(=O)n3nc(C(C)C)sc3n2)cc(OC)c1OC`, the Potency is reported as inconclusive: 79.4 µM [inhibitor, single point]. For `CN1C(=O)C2C=CC1C1C(=O)N(c3ccccc3)C(=O)C21` (stereo unspecified), the Potency was inconclusive: 89.1 µM [inhibitor, single point]. `O=C(N/N=C/c1ccccn1)c1cccc(NC(=O)c2ccc(Cl)cc2)c1` was tested, and the Potency was “inactive”. `Cc1ccc2c(c1C)NC(C(=O)O)C1CC=CC21` (stereo unspecified) was tested, and the Potency was active: 17.8 µM and active: 7.08 µM. `O=C(CN1CCN(c2ccccc2)CC1)Nc1ccc2c(c1)CCC2` was tested, and the Potency was inconclusive: 44.7 µM [inhibitor, partial curve]. `Cc1ccc2nc(NS(=O)(=O)c3ccc(Cl)cc3)c(Nc3ccc(C(=O)O)cc3)nc2c1` was tested, and the Potency was “inactive”. In the case of `CCCCOc1ccc(/C=C2/Sc3ccccc3C2=O)cc1`, the Potency is reported as “inactive”. In the case of `CCOC(=O)/C(=N/Nc1ccccc1)c1csc(Nc2ccccc2)n1`, the Potency is reported as inconclusive: 44.7 µM [inhibitor, full curve, poor fit]. With `CC(=O)C1=C(O)C(=O)N(Cc2ccccc2)C1c1cccs1` (stereo unspecified) the Potency was inconclusive: 79.4 µM [inhibitor, single point]. With `CCc1nc2c(sc3nc4c(cc32)COC(C)(C)C4)c(=O)n1Cc1ccco1` the Potency was inconclusive: 89.1 µM [inhibitor, single point]. With `CC[n+]1c(/C=C2\C=C(C)CC(C)(C)C2)sc2ccccc21` the Potency was active: 56.2 µM. With `NC(=O)C1CCN(C(=O)COc2ccc(S(=O)(=O)NC3CCCC3)cc2)CC1` the Potency was “inactive”. With `COc1ccc(-c2csc(N3CCN(C(=O)c4ccco4)CC3)n2)cc1` the Potency was inconclusive: 50.1 µM [inhibitor, partial curve]. `Nc1nc(NCc2ccco2)nc(N2CCCCCC2)c1[N+](=O)[O-]` was tested, and the Potency was active: 50.1 µM. For `O=C(Cc1cccs1)Nc1ccccn1`, the Potency was inconclusive: 89.1 µM [inhibitor, single point]. `CCOC(=O)C1=C(C)N=c2s/c(=C\c3ccc(OCC(=O)O)cc3)c(=O)n2C1c1ccccc1` (stereo unspecified) was tested, and the Potency was inconclusive: 79.4 µM [inhibitor, partial curve]. With `CCCn1c(=O)c2sccc2n2c(CCCC(=O)N3CCN(c4cccc(C)c4C)CC3)nnc12` the Potency was inconclusive: 79.4 µM [inhibitor, single point]. In the case of `COc1ccc(NC2=Nc3cccc4cccc2c34)cc1`, the Potency is reported as active: 35.5 µM. `COc1ccc(S(=O)(=O)Nc2ccc(-c3ccc4nncn4n3)cc2)c(OC)c1` was tested, and the Potency was “inactive”. With `CC(C(=O)NC1CCCC1)N(C(=O)c1ccc(-c2ccccc2)[nH]1)c1ccccc1F` (stereo unspecified) the Potency was inconclusive: 39.8 µM [inhibitor, full curve]. With `N#Cc1c(NC(=O)c2ccc(-c3ccccc3[N+](=O)[O-])o2)sc2c1CCCC2` the Potency was inconclusive: 79.4 µM [inhibitor, partial curve]. With `CCOc1ccc2[nH]c3c(N4CCN(c5ccccn5)CC4)ncnc3c2c1` the Potency was inconclusive: 20 µM [inhibitor, full curve]. With `COC(=O)c1ccccc1NC(=O)CSc1nc(O)c(-c2ccccc2)c(=O)[nH]1` the Potency was inconclusive: 89.1 µM [inhibitor, single point]. For `c1ccc(-c2nnc(SCc3nc4ccccc4[nH]3)n2Cc2ccco2)nc1`, the Potency was inconclusive: 89.1 µM [inhibitor, single point]. For `N#Cc1ccc(OC(=O)c2cc(-c3ccc4c(c3)OCCO4)on2)cc1`, the Potency was inconclusive: 89.1 µM [inhibitor, single point]. For `O=c1/c(=C\c2cccc(O)c2)sc2nc(-c3ccccc3)c(-c3ccccc3)n12`, the Potency was active: 5.62 µM. For `CCN(CC)c1ccc(N)cc1S(=O)(=O)Nc1ccccc1OC`, the Potency was inconclusive: 50.1 µM [inhibitor, partial curve]. For `CC(C)Oc1ccc(CNC(=O)c2cnc3sc(N4CCCCC4)nn3c2=O)cc1`, the Potency was “inactive”. With `CC(=O)Nc1ccc2nc3c(=O)n(C)c(=O)n(C)c3nc2c1` the Potency was inconclusive: 89.1 µM [inhibitor, single point]. In the case of `CCOc1ccc(Nc2oc(-c3ccc(COc4ccccc4C)o3)nc2C#N)cc1`, the Potency is reported as inconclusive: 8.91 µM [inhibitor, full curve, poor fit]. In the case of `CCN1C(c2ccc(F)cc2)=CS/C1=C(\C#N)c1nnc2n1-c1ccccc1SC2`, the Potency is reported as inconclusive: 44.7 µM [inhibitor, partial curve]. `CCS(=O)(=O)N1CCN(Cc2ccccc2OC)CC1` was tested, and the Potency was active: 22.4 µM. `CCCN(CCC)C(=O)CSc1ncccc1C(=O)O` was tested, and the Potency was “inactive”. For `COc1ccc(/C=N/Nc2cc(C)nc(N3CCOCC3)n2)cc1`, the Potency was “inactive”. With `Cc1cccc(CC2S/C(=N/c3ccccn3)NC2=O)c1` (stereo unspecified) the Potency was “inactive”. With `CCC(/C=C1\Sc2ccc(OC)cc2N1CCO)=C\c1sc2ccc(OC)cc2[n+]1CCO` the Potency was active: 12.6 µM. `c1ccc(-n2c(SCc3nc(-c4cccs4)no3)nnc2-c2ccco2)cc1` was tested, and the Potency was inconclusive: 89.1 µM [inhibitor, single point]. In the case of `S=c1[nH]nc(C2CC2c2ccc(Cl)cc2)n1-c1ccc(Cl)cc1` (stereo unspecified), the Potency is reported as inconclusive: 44.7 µM [inhibitor, partial curve].

— PubChem BioAssay AID504333 (National Center for Advancing Translational Sciences (NCATS), 2011)
Further: nearly all actives have a fitted effect of over 60% in size.
Potency means the concentration at half of the fitted maximal effect; tags describe the fitted curve by direction and shape.
